Test results published in ChEMBL document CHEMBL5606460, “ASAP - DENV-2 NS2B-NS3 protease fluorescence single point” (2024).
In all, about 2,000 compounds went through this assay and about 110 (5.5%) showed an effect of 50% or more. The list shows a part of the results. Residues, ends and D or L forms follow the SMILES beside them. *: point of attachment. pNA = O=[N+]([O-])c1ccc(N*)cc1; Boc = CC(C)(C)OC(=O)*

Target: Genome polyprotein (dengue virus type 2) (UniProt P29990)
[1] = Thailand/16681/1984, Concentration 25.0 uM, Number of replicates 1.0

For `Cn1c(C(=O)Nc2cc(Cl)cc(C(=O)NC(C)(C)CO)c2)cccc1=O`, which inhibition (Thailand/16681/1984, Concentration 49.5 uM, Number of replicates 2.0, Standard deviation 0.4081268580659683 %) is on record?
Its inhibition is -0.99%.

And the inhibition (Thailand/16681/1984, Concentration 99.01 uM, Number of replicates 2.0, Standard deviation 2.113430221710736 %)?
The inhibition was -1.01%.

And the inhibition (Thailand/16681/1984, Concentration 198.0 uM, Number of replicates 2.0, Standard deviation 2.072570516879941 %)?
Its inhibition is 0.352%.

For `CN(CCCCc1ccccc1)C(=O)C1CCN(c2ccc(C=O)cc2)CC1`, which inhibition [1] is on record?
The inhibition was 13%.

Which results are given for `Cc1cc(CO)c2cccc(Cc3ccccc3NC(=O)Cc3c[nH]c4ccccc34)c2n1`?
inhibition (Thailand/16681/1984, Concentration 49.95 uM, Number of replicates 2.0, Standard deviation 1.1797806526631314 %): 5.6%; inhibition (Thailand/16681/1984, Concentration 99.9 uM, Number of replicates 2.0, Standard deviation 0.9471475819719768 %): 13.1%

`NCc1cccc(NC(=O)[C@@H](Cc2c[nH]c3ccccc23)NC(=O)OCc2ccccc2)c1` was tested. Which inhibition (Thailand/16681/1984, Concentration 49.5 uM, Number of replicates 2.0, Standard deviation 0.5533931785698599 %) did it give?
Its inhibition is -3.79%.

And the inhibition (Thailand/16681/1984, Concentration 99.01 uM, Number of replicates 2.0, Standard deviation 0.8728976475377288 %)?
The inhibition was -3.24%.

And the inhibition (Thailand/16681/1984, Concentration 198.0 uM, Number of replicates 2.0, Standard deviation 1.5348647219639115 %)?
The inhibition was 0.836%.

How did the inhibition (Thailand/16681/1984, Concentration 49.5 uM, Number of replicates 2.0, Standard deviation 1.0351827811766225 %) turn out when `Cn1cc(NC(=O)c2ccccc2C(F)(F)F)c(-c2cnn(CCF)c2)n1` was run?
Its inhibition is -1.26%.

What about the inhibition (Thailand/16681/1984, Concentration 99.01 uM, Number of replicates 2.0, Standard deviation 0.6202752538285244 %) of the same compound?
The inhibition was -1.64%.

What about the inhibition (Thailand/16681/1984, Concentration 198.0 uM, Number of replicates 2.0, Standard deviation 0.5771619780812757 %) of the same compound?
The inhibition was -1.73%.

`C[Si](C)(C)CN(Cc1ccccc1)C(=O)C1CCN(c2ccc(C=O)cc2)CC1` was tested. Which inhibition [1] did it give?
Its inhibition is 11.5%.

Which inhibition (Thailand/16681/1984, Concentration 49.5 uM, Number of replicates 2.0, Standard deviation 2.214504665393713 %) does the source give for `CNC(=O)c1cc(Cl)ccc1NS(=O)(=O)c1ccc(Oc2ccccc2Cl)cc1` here?
Its inhibition is 57.1%.

And the inhibition (Thailand/16681/1984, Concentration 99.01 uM, Number of replicates 2.0, Standard deviation 0.44410505168195935 %)?
Its inhibition is 89.7%.

What about the inhibition (Thailand/16681/1984, Concentration 198.0 uM, Number of replicates 2.0, Standard deviation 0.048202507704939286 %) of the same compound?
Its inhibition is 89.7%.

With `O=Cc1ccc(N2CCC(C(=O)NC3(c4cccc(F)c4)CC3)CC2)cc1` as the compound, how does the inhibition [1] read?
The inhibition was 11.9%.

`CC(C)[C@H](CNC(=O)C1CCN(c2ccc(C=O)cc2)CC1)N1CCCC1` was tested. Which inhibition [1] did it give?
The inhibition was 12.6%.

For `O=C(O)c1cnn([C@H]2CCCN(C(=O)c3c[nH]c4ccccc34)C2)c1`, which inhibition (Thailand/16681/1984, Concentration 49.5 uM, Number of replicates 2.0, Standard deviation 0.2879130457854372 %) is on record?
The inhibition was -2.6%.

What about the inhibition (Thailand/16681/1984, Concentration 99.01 uM, Number of replicates 2.0, Standard deviation 1.3824179166362038 %) of the same compound?
The inhibition was -0.821%.

And the inhibition (Thailand/16681/1984, Concentration 198.0 uM, Number of replicates 2.0, Standard deviation 0.2454608012102332 %)?
The inhibition was 0.437%.

With `Cc1nnc([C@H](C)n2cc(C3CCNCC3)c(C)n2)o1` as the compound, how does the inhibition (Thailand/16681/1984, Concentration 49.5 uM, Number of replicates 2.0, Standard deviation 23.401160981224884 %) read?
Its inhibition is 6.09%.

What about the inhibition (Thailand/16681/1984, Concentration 99.01 uM, Number of replicates 2.0, Standard deviation 17.471832455878243 %) of the same compound?
Its inhibition is 11.7%.

What about the inhibition (Thailand/16681/1984, Concentration 198.0 uM, Number of replicates 2.0, Standard deviation 4.4669335919131345 %) of the same compound?
Its inhibition is -3.53%.

`O=Cc1ccc(N2CCC(C(=O)Nc3c(F)cc(F)cc3[N+](=O)[O-])CC2)cc1` was tested. Which inhibition [1] did it give?
The inhibition was 15.2%.

For `Nc1cccc2nccnc12`, which inhibition (Thailand/16681/1984, Concentration 49.95 uM, Number of replicates 2.0, Standard deviation 5.295989560794225 %) is on record?
The inhibition was -6.11%.

And the inhibition (Thailand/16681/1984, Concentration 99.9 uM, Number of replicates 2.0, Standard deviation 5.261439871388237 %)?
The inhibition was -3.3%.

Which results are given for `Cc1cc(CO)c2cccc(C[C@H](NC(=O)CN3CCOCC3)C(=O)O)c2n1`?
inhibition (Thailand/16681/1984, Concentration 49.95 uM, Number of replicates 2.0, Standard deviation 0.9688152767914274 %): 2.24%; inhibition (Thailand/16681/1984, Concentration 99.9 uM, Number of replicates 2.0, Standard deviation 0.45062736078271726 %): 9.49%

How did the inhibition (Thailand/16681/1984, Concentration 49.5 uM, Number of replicates 2.0, Standard deviation 1.1119212341343476 %) turn out when `O=C(NCCc1c[nH]nc1O)[C@]1(c2ccc(F)cc2)CCCNC1` was run?
The inhibition was 0.072%.

And the inhibition (Thailand/16681/1984, Concentration 99.01 uM, Number of replicates 2.0, Standard deviation 0.36955187067267553 %)?
The inhibition was 0.004%.

And the inhibition (Thailand/16681/1984, Concentration 198.0 uM, Number of replicates 2.0, Standard deviation 0.8691816863450689 %)?
Its inhibition is -0.069%.

How did the inhibition [1] turn out when `O=Cc1ccc(N2CCC(C(=O)N3CCN(Cc4ccc(OC(F)(F)F)cc4)CC3)CC2)cc1` was run?
The inhibition was 10.9%.

What does the source list for `Cc1cc(CO)c2cccc(Cc3cccc(NC(=O)CN4CCOCC4)c3)c2n1`?
inhibition (Thailand/16681/1984, Concentration 49.95 uM, Number of replicates 2.0, Standard deviation 0.37901345884173465 %): -3.12%; inhibition (Thailand/16681/1984, Concentration 99.9 uM, Number of replicates 2.0, Standard deviation 0.45265428702130317 %): 1.92%

For `CN1CCN(c2ccc(NC(=O)C3CCN(c4ccc(C=O)cc4)CC3)cc2F)CC1`, which inhibition [1] is on record?
The inhibition was 9.12%.

For `O=Cc1ccc(N2CCC(C(=O)NC[C@H](O)c3ccc(O)c(O)c3)CC2)cc1`, which inhibition [1] is on record?
Its inhibition is 36.5%.

Which results are given for `CSCC[C@H](NC(=O)OC(C)(C)C)C(=O)N1CCC[C@H]1C(=O)Nc1ccc([N+](=O)[O-])cc1` (Boc-Met-Pro-pNA)?
inhibition (Thailand/16681/1984, Concentration 49.5 uM, Number of replicates 2.0, Standard deviation 0.6934296230825803 %): 10.3%; inhibition (Thailand/16681/1984, Concentration 99.01 uM, Number of replicates 2.0, Standard deviation 0.4989876662884813 %): 17.1%; inhibition (Thailand/16681/1984, Concentration 198.0 uM, Number of replicates 2.0, Standard deviation 0.32485037523299065 %): 29.3%

Which inhibition (Thailand/16681/1984, Concentration 49.95 uM, Number of replicates 2.0, Standard deviation 0.3413314788746907 %) does the source give for `Cc1cc(CO)c2cccc(CC(=O)NCc3sccc3C)c2n1` here?
Its inhibition is 44%.

And the inhibition (Thailand/16681/1984, Concentration 99.9 uM, Number of replicates 2.0, Standard deviation 0.321257440691134 %)?
The inhibition was 63.7%.

How did the inhibition (Thailand/16681/1984, Concentration 49.95 uM, Number of replicates 2.0, Standard deviation 1.450239339781055 %) turn out when `Cc1cc(CO)c2cccc(Cc3ccccc3C(=O)N[C@@H](CCCN)C(=O)O)c2n1` was run?
Its inhibition is -9.67%.

And the inhibition (Thailand/16681/1984, Concentration 99.9 uM, Number of replicates 2.0, Standard deviation 1.946109361538337 %)?
The inhibition was 0.782%.

What does the source list for `CCc1nc([C@@H](C)NC(=O)c2ccc(O)c(NC(=O)c3ccncc3F)c2C)n[nH]1`?
inhibition (Thailand/16681/1984, Concentration 49.5 uM, Number of replicates 2.0, Standard deviation 0.640305880758115 %): -3.94%; inhibition (Thailand/16681/1984, Concentration 99.01 uM, Number of replicates 2.0, Standard deviation 0.7647439452243474 %): -3.61%; inhibition (Thailand/16681/1984, Concentration 198.0 uM, Number of replicates 2.0, Standard deviation 1.5490355987880475 %): -3.27%
